# In PubChem BioAssay AID686978 (National Center for Advancing Translational Sciences (NCATS), 2013):
# The whole screen tested about 420,000 compounds, of which about 64,000 (15%) were called active. Inconclusive means that the source gave no clear call. Such entries were picked first, then a sample of the others. The call rests on the fitted dose curve; in most records, active means well fitted inhibition curve with a large enough effect; inconclusive means small, poorly fitted or top-dose-only effect; inactive means flat fitted curve, though single readings scatter. No potency is given beside an inconclusive call; the fits are too rough.
# Experiment: qHTS for Inhibitors of human tyrosyl-DNA phosphodiesterase 1 (TDP1): qHTS in cells in absence of CPT; further: nearly all actives have a fitted effect of over 55% in size
# Conditions: DT40 Tdp1-/- hTDP1 cells, no CPT, ATP luminescence, 48 h; activity change, negative = growth inhibition: at 46.2 µM (top of the series) unless noted
# Procedure, shortened: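 Luminescent ATP content (CellTiter-Glo) served as the growth readout. Knockout chicken DT40 cells expressing human TDP1 were exposed to compounds without camptothecin for a minimum 48 hr at 37 °C.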
# On the % scale 0 is the no-effect control and ±100 the full control effect; potency means the concentration at half of the fitted maximal effect; tags describe the fitted curve by direction and shape.
SMILES,Potency,"activity change, negative = growth inhibition"
CCOC(=O)c1ccc(NC(=O)CSc2ccc(-c3cccnc3)nn2)cc1,"inconclusive [inhibitor, single point]",–
CN1c2ccc([N+](=O)[O-])cc2CC2(C(=O)NC(=O)NC2=O)C1c1ccccc1 (stereo unspecified),"inconclusive [inhibitor, partial curve, poor fit]",–
CCC(C)NS(=O)(=O)c1ccc(OCC(=O)N2CCN(CC)CC2)cc1 (stereo unspecified),inactive,–
CCOc1nc(NC(C)C)nc(N2CC3CC(C2)c2cccc(=O)n2C3)n1 (stereo unspecified),"inconclusive [inhibitor, single point]",–
COc1ccc(CN(CCc2c[nH]c3ccccc23)Cc2ccc(OC)cc2)cc1,active: 14.6 µM,–
CCOC(=O)[C@]12Cc3cc(OC)ccc3[C@H]1N(Cc1ccccc1)C(=O)c1cc(OC)ccc12,active: 16.4 µM,–
Cc1c(C=O)c2ccccc2n1Cc1ccccc1F,inactive,–
COCCn1c(SCc2ccccc2Cl)nc2c1c(=O)[nH]c(=O)n2C,"inconclusive [inhibitor, partial curve]",–
COC(=O)CN1C(=O)CN=C(c2ccccc2Cl)c2cc(Br)ccc21,"inconclusive [inhibitor, single point]",–
Oc1c(Br)cc(Br)cc1CN1CCN(Cc2ccccc2)CC1,"inconclusive [inhibitor, partial curve]",–
[O-][n+]1onc2c1CCC1N(O)CCC21O (stereo unspecified),inactive,–
CC1C=CCCC12C(=O)NC(=O)NC2=O (stereo unspecified),inactive,–
Cc1ccc(C(C)C)c(OCC#CCN2CCCC2)c1,"inconclusive [inhibitor, partial curve]",–
CCOC(=O)[C@]12Cc3cc(OC)ccc3[C@H]1N(CC(=O)OC)C(=O)c1cc(OC)ccc12,active: 6.51 µM,–
COc1cc(OC)cc(-c2sc3ccc(OC)cc3c2-c2ccc(OCCN3CCOCC3)cc2)c1,"inconclusive [inhibitor, single point]",–
Nc1ccncc1Cl,inactive,–
O=C(Nc1ccc(Cl)c(C(F)(F)F)c1)c1ccc2c(c1)CCN2S(=O)(=O)c1ccccc1,active: 9.2 µM,–
Cc1nnc2n1-c1sc(CCC(=O)N3CCOCC3)cc1C(c1ccccc1Cl)=NC2,inactive,–
COc1ccccc1-n1c(-c2ccccc2)nc2ccccc2c1=O,"inconclusive [inhibitor, partial curve, poor fit]",–
CCN1CCN(CC(=O)c2c(C)n(Cc3ccccc3)c3ccc(OC)cc23)CC1,"inconclusive [inhibitor, single point]",–
COc1cc2nc(CN3CC=C(c4ccccc4)CC3)[nH]c(=O)c2cc1OC,active: 18.4 µM,–
CCc1ccccc1NC(=O)N1C[C@H]2C[C@@H](C1)c1cccc(=O)n1C2,inactive,–
N#CCCn1cc(C(=O)NCc2ccccc2)c(-c2ccccc2)n1,inactive,–
COC(=O)C1=C(c2ccc(F)cc2OCc2ccccc2)C[C@@H]2CC[C@H]1N2C(=O)N1CCC(O)(c2ccc(Cl)cc2)CC1,active: 23.1 µM,–
Cc1ccc(C)c(S(=O)(=O)Nc2ccc3c(c2)CCCN3C(=O)c2cccs2)c1,active: 18.4 µM,–
C=CCn1c(O)c(/C(C)=N/N2CCCCCC2)c(=O)[nH]c1=O,"inconclusive [inhibitor, partial curve]",–

SMILES,Potency,"activity change, negative = growth inhibition"
O=C(Nc1ncc(Cc2ccccc2)s1)C1=NCCN1,"inconclusive [inhibitor, partial curve]",–
O=C(Nc1ccc(Br)cc1)c1ccc(Cl)c(S(=O)(=O)N2CCCCCC2)c1,active: 16.4 µM,–
CCCc1nc(SC)ncc1C(=O)Nc1ccc(Cl)cc1C(=O)c1ccccc1,active: 23.1 µM,–
CC[N+]1(C)CCCC(OC(=O)C(O)(c2ccccc2)c2ccccc2)C1 (stereo unspecified),inactive,–
CCCCCCCCC(c1nc2cc(C)c(C)cc2[nH]1)n1c(=O)c(-c2ccccc2Br)nc2ccccc21 (stereo unspecified),"inconclusive [inhibitor, single point]",–
Cc1ccccc1CN1Cc2cnnn2-c2ccccc2C1C#N (stereo unspecified),active: 2.06 µM,–
COC(=O)C1=C(c2cc3ccccc3s2)C[C@@H]2CC[C@H]1N2C(=O)NCc1ccccc1,"inconclusive [inhibitor, single point]",–
Oc1cc(Cl)c(Cl)cc1Cl,"inconclusive [inhibitor, single point]",–
COC(=O)C1=C(c2ccc(F)cc2OCc2ccccc2)C[C@@H]2CC[C@H]1N2C(=O)NCc1ccc2[nH]ccc2c1,"inconclusive [inhibitor, single point]",–
O=C(Nc1nc2ccccc2s1)c1cccn(Cc2ccccc2)c1=O,"inconclusive [inhibitor, single point]",–
O=C1NC(=O)C2(CCCc3ccc(N(CCCl)CCCl)cc32)N1 (stereo unspecified),active: 0.184 µM,–
COc1ccc(CC2(CCc3ccncc3)C(=O)NC(=O)NC2=O)c(OC)c1,inactive,–
CN(C)CCc1c[nH]c2ccccc12,inactive,–
CC(C)[N+]12CCC(CC1)C(C(O)(c1ccccc1)c1ccccc1)C2 (stereo unspecified),inactive,–
CC(O)(CS(=O)(=O)c1cccc(C(F)(F)F)c1)C(=O)Nc1cccc(C(F)(F)F)c1 (stereo unspecified),"inconclusive [inhibitor, single point]",–
CCCCn1c(N)c(C(=O)OCC2CCCO2)c2nc3ccccc3nc21 (stereo unspecified),active: 18.4 µM,–
O=C(c1cn(Cc2ccccc2)c2ccccc12)C1CC1,"inconclusive [inhibitor, single point]",–
CC(C)OC(=O)Cc1ccccc1,inactive,–
COc1ccccc1C(=O)C1CCCN(Cc2cnc(C)s2)C1 (stereo unspecified),active: 20.6 µM,–
Cc1cccc(OC(C)C(=O)NCC2(N(C)C)CCCCC2)c1C (stereo unspecified),inactive,–
CCOC(=O)c1ccc(N2C(=O)c3[nH]nc(-c4ccccc4)c3C2c2ccc(C(C)C)cc2)cc1 (stereo unspecified),active: 25.9 µM,–
CC(=O)N[C@@H]1CC[C@@]2(O)[C@H]3Cc4ccc(O)c5c4[C@@]2(CCN3CC2CC2)[C@@H]1O5,inactive,–
O=c1cccc2n1CC1CC2CN(C(c2ccccc2)c2sc3ncnn3c2O)C1 (stereo unspecified),inactive,–
Cc1[nH]c2ccccc2c1CN1CCCCC1,active: 3.66 µM,–
Cc1ccc(NC(=O)C2CCN(C(=O)c3cnn(-c4ccccc4)c3-n3cccc3)CC2)cc1Cl,active: 13 µM,–
Cc1ccc(NP(=O)(Oc2ccccc2F)Oc2ccccc2F)cc1,–,inconclusive: -32.2% [inhibitor]

SMILES,Potency,"activity change, negative = growth inhibition"
COc1ccc(-n2c(O)c(/C(C)=N/N3CCCCCC3)c(=O)[nH]c2=O)cc1,inactive,–
CCc1c(C)nc(N)nc1N1N=C1SCC(=O)OC,inactive,–
CC(=O)N1c2ccc(S(=O)(=O)N3CCCC(C(=O)Nc4cc(C)cc(C)c4)C3)cc2CC1C (stereo unspecified),"inconclusive [inhibitor, single point]",–
COc1cc(C(=S)N2CCOCC2)cc(OC)c1OC(=O)Cc1ccccc1,inactive,–
COc1ccc(N=Cc2c(O)n(Cc3ccccc3)c(=S)[nH]c2=O)c(OC)c1,"inconclusive [inhibitor, full curve, poor fit]",–
CCOS(C)(=O)=O,inactive,–
O=C(c1ccc(C(F)(F)F)cc1)C1CCCN(Cc2ccc(CO)o2)C1 (stereo unspecified),"inconclusive [inhibitor, partial curve, poor fit]",–
Cc1nnc(NC(=O)c2cccn(Cc3ccccc3)c2=O)s1,inactive,–
COc1ccccc1N1CCN(Cc2ccc3c(c2)OCO3)CC1,"inconclusive [inhibitor, single point]",–
Cc1ccc(C)c(CN2CCC(n3nnc4cc(F)ccc43)CC2)c1,"inconclusive [inhibitor, single point]",–
O=C(NCc1ccc(Cl)cc1)C1CCN(C(=O)c2cnn(-c3ccccc3)c2-n2cccc2)CC1,active: 10.3 µM,–
COc1ccc(NC(=O)Nc2ccc3c(c2)C(=O)N([C@H](C)CO)C[C@H](C)[C@@H](CN(C)S(=O)(=O)c2ccc(OC)cc2)O3)cc1,"inconclusive [inhibitor, single point]",–
C=CCN1CCCC1CNC(=O)c1cc2[nH]nnc2cc1OC (stereo unspecified),"inconclusive [inhibitor, single point]",–
Cn1c(=O)cc(SCC(=O)N2CCC3(CC2)OCCO3)c2ccccc21,"inconclusive [inhibitor, partial curve]",–
Cc1cnc(SCc2ccccn2)nc1C1CCCN(C(=O)c2ccc(-c3ccccc3F)cc2)C1 (stereo unspecified),active: 23.1 µM,–
O=c1oc2ccccc2c(O)c1[C@H]1c2ccc(O)cc2Oc2c1c(=O)oc1ccccc21,active: 23.1 µM,–
N#CC12CC(=O)N1Cc1cnnn1-c1ccccc12 (stereo unspecified),inactive,–
CC1=NN(c2ccccc2)C(=O)/C1=C/c1c(O)[nH]c(=S)[nH]c1=O,"inconclusive [inhibitor, partial curve]",–
COC(=O)C(O)(c1ccc(NC(=S)NC(=O)c2ccc(Cl)cc2Cl)cc1)C(F)(F)F (stereo unspecified),active: 14.6 µM,–
O=C(CNC(=O)c1cccc(S(=O)(=O)N2CCc3ccccc32)c1)Nc1ccccc1Br,"inconclusive [inhibitor, single point]",–
COC(=O)[C@@H]1C[C@@]1(C)[C@@H](NP(=O)(c1ccccc1)c1ccccc1)c1ccccc1,active: 20.6 µM,–
CC1=C(C)CC2(C(=O)NC(=S)NC2=O)C(C)C1 (stereo unspecified),inactive,–
Cc1nc2ccccc2c(=O)n1/N=C/c1cc(Br)cc(Br)c1O,"inconclusive [inhibitor, single point]",–
COc1ccc(CN2CCN(Cc3ccccc3F)CC2)cc1,inactive,–
